# This is one part of the list. One pool of 16,384 single-stranded DNAs met each Rep nickase domain in vitro for 1 h at 37 °C with 3 µM enzyme; only the middle of the 90-letter strands is printed. Numbers give uncut DNA relative to the enzyme-free pool, as log2; more negative means more cut, near 0 not cut, and no call is made. Because reads are shares of a total, they shift together; where an enzyme cuts many sequences, the uncut ones exceed 0.
# Tested on: T1, Rep nickase domain of tomato golden mosaic virus
# T1 sequence (protein, residues 1-124, tag omitted): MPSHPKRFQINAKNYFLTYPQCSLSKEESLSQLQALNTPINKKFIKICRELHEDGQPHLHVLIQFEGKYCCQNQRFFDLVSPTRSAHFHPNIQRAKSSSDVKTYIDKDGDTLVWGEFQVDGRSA
# Experiment: uncleaved DNA left, log2 of reads against the no-enzyme library (log2 ratio); higher = less cleavage (more negative = more Rep cleavage of the k-mer); sequences stand for … in CTCGTCCG…ACCGGAGA
# Procedure: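 A pool of 90-nt single-stranded DNAs with seven random bases just before the constant AC of the nick site (name = the seven bases) was cut by 3 µM recombinant His6-SUMO-tagged Rep nickase domain (300 nM DNA, 50 mM HEPES pH 8.0, 50 mM NaCl, 1 mM MnCl2, 1 h, 37 °C, three replicates). Uncut DNA was amplified and sequenced.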
row,Sequence,uncleaved DNA left (log2)
1,CCGTCAT,-0.195
2,CAGCGAA,-0.106
3,AGAACAA,0.0762
4,GCCTCGT,-0.0747
5,CCAAGAT,-0.148
6,ATTATTT,0.0498
7,TGGCTTG,-0.0604
8,TCTTGAA,0.091
9,AGTAGTT,-0.0322
10,TGGTAGC,-0.0437
11,GATTCCA,0.0439
12,ATCATGC,-0.000908
13,TACGGCA,-0.0535
14,TGTAGTA,0.122
15,AACGTGG,-0.109
16,GCAATCA,-0.014
17,CATAAAG,-0.0694
18,TAGAAGC,-0.0672
19,TCGGAGC,-0.0188
20,ATTGCCC,-0.0912

row,Sequence,uncleaved DNA left (log2)
1,TCCCCGA,-0.0433
2,TAAGTAA,0.0825
3,CCGAACT,0.0867
4,AGTGTCA,0.0751
5,AGGACGT,0.0643
6,CACCGTA,-0.257
7,CTCCCTG,-0.164
8,ACGAGGA,-0.0123
9,CGCTTCA,-0.108
10,ACTTTCG,-0.0691
11,ATATCGA,-0.0279
12,CAACATA,-0.166
13,TCTCCCT,-0.0254
14,TAAGTAT,-0.291
15,TCCTCGC,0.0257
16,CATCAGA,-0.0489
17,GTTAGGA,0.241
18,ACGCAAC,-0.0528
19,TAACCGT,-0.141
20,AAAATCA,0.0879

# — the supplement of paper PMC7826260
